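48-hour exposure; five concentrations; linearly interpolated endpoints. GI50 = concentration required for 50% inhibition of growth.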 The source holds more than one record for some entries. The list is limited to them. The source may hold further records. The tests behind the records often covered other concentration ranges, which the source does not state; a value can be the end of its range. Brackets tell where a record comes from. The letters are not those of the source and start again with each entry.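 At the TGI there is no net growth.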
What was measured:
Assay in all cases: inhibition of tumour cell growth, NCI panel, 48 h
RPMI-8226 leukemia = test system: RPMI-8226 leukemia
BT-549 breast = test system: BT-549 breast
UACC-257 melanoma = test system: UACC-257 melanoma
NCI-H226 lung = test system: NCI-H226 lung
SNB-19 CNS = test system: SNB-19 CNS
MDA-N = test system: MDA-N
786-0 renal = test system: 786-0 renal
PC-3 prostate = test system: PC-3 prostate
K-562 leukemia = test system: K-562 leukemia
OVCAR-8 ovarian = test system: OVCAR-8 ovarian
LOX IMVI melanoma = test system: LOX IMVI melanoma
NCI-H23 lung = test system: NCI-H23 lung
CCRF-CEM leukemia = test system: CCRF-CEM leukemia
SF-268 CNS = test system: SF-268 CNS
COLO 205 colon = test system: COLO 205 colon
TK-10 renal = test system: TK-10 renal
MCF7 breast = test system: MCF7 breast
UACC-62 melanoma = test system: UACC-62 melanoma
HCT-15 colon = test system: HCT-15 colon
UO-31 renal = test system: UO-31 renal
IGROV1 ovarian = test system: IGROV1 ovarian
EKVX NSCLC = test system: EKVX NSCLC
HCC-2998 colon = test system: HCC-2998 colon
M14 melanoma = test system: M14 melanoma
SF-295 CNS = test system: SF-295 CNS
SR leukemia = test system: SR leukemia
SK-OV-3 ovarian = test system: SK-OV-3 ovarian
SW-620 colon = test system: SW-620 colon
OVCAR-3 ovarian = test system: OVCAR-3 ovarian
MOLT-4 leukemia = test system: MOLT-4 leukemia
HS 578T breast = test system: HS 578T breast
HT29 colon = test system: HT29 colon
HCT-116 colon = test system: HCT-116 colon
SNB-75 CNS = test system: SNB-75 CNS
SK-MEL-2 melanoma = test system: SK-MEL-2 melanoma
A549 NSCLC = test system: A549 NSCLC
DU-145 prostate = test system: DU-145 prostate
NCI-H460 lung = test system: NCI-H460 lung
CAKI-1 renal = test system: CAKI-1 renal
ACHN renal = test system: ACHN renal
HOP-92 NSCLC = test system: HOP-92 NSCLC
HL-60(TB) leukemia = test system: HL-60(TB) leukemia
KM12 colon = test system: KM12 colon
T-47D breast = test system: T-47D breast
SN12C renal = test system: SN12C renal
HOP-62 NSCLC = test system: HOP-62 NSCLC
U251 CNS = test system: U251 CNS
NCI-H522 lung = test system: NCI-H522 lung

COc1cccc2c1C(=O)c1c(O)c3c(c(O)c1C2=O)C[C@@](O)(C(=O)CO)C[C@@H]3OC1CC(N)C(O)C(C)O1 (some centres undefined)
TGI (RPMI-8226 leukemia): 250 nM, 1.58 µM, 3.67 µM, 2.32 µM [sample A] and 3.04 µM [sample B] | TGI (BT-549 breast): 250 nM, 1.59 µM, 1.84 µM, 2.61 µM [sample A] and 3.92 µM [sample B] | TGI (UACC-257 melanoma): 207 nM, 1.11 µM, 1.38 µM, 756 nM [sample A] and 2.17 µM [sample B] | TGI (NCI-H226 lung): 179, 518, 322, 717 nM [sample A] and 355 nM [sample B] | TGI (SNB-19 CNS): 250 nM, 3.96 µM, 3.67 µM, 3.13 µM [sample A] and 2.99 µM [sample B] | GI50 (MDA-N): 184 nM [sample A, 1 test] and 281 nM [sample A, mean of 1586 tests] and 433 nM [sample A, mean of 3 tests] and 112 nM [sample B, 1 test] | TGI (786-0 renal): 250 nM, 3.82 µM, 8.29 µM, 11.6 µM [sample A] and 2.67 µM [sample B] | TGI (PC-3 prostate): 2.98 µM, 2.04 µM, 10.3 µM [sample A] and 2.81 µM [sample B] | TGI (K-562 leukemia): 25 µM [sample A, 1 test] and 250 nM [sample A, mean of 2 tests] and 5.89 µM [sample A, mean of 2384 tests] and 11.9 µM [sample A, mean of 4 tests] and 4.65 µM [sample B, mean of 3 tests] | TGI (OVCAR-8 ovarian): 250 nM, 4.77 µM, 1.17 µM, 2.6 µM [sample A] and 7.2 µM [sample B] | TGI (LOX IMVI melanoma): 250 nM, 1.37 µM, 2.03 µM [sample A] and 1.3 µM [sample B] | TGI (NCI-H23 lung): 250 nM, 869 nM, 627 nM, 1.12 µM [sample A] and 533 nM [sample B] | TGI (CCRF-CEM leukemia): 250 nM, 2.06 µM, 16.2 µM, 11.4 µM [sample A] and 5.47 µM [sample B] | TGI (SF-268 CNS): 250 nM [sample A, mean of 2 tests] and 1.87 µM [sample A, mean of 2484 tests] and 1.55 µM [sample A, mean of 3 tests] and 1.63 µM [sample A, mean of 4 tests] and 2.95 µM [sample B, mean of 3 tests] | TGI (COLO 205 colon): 250 nM [sample A, mean of 2 tests] and 1.14 µM [sample A, mean of 2473 tests] and 1.56 µM [sample A, mean of 3 tests] and 1.32 µM [sample A, mean of 4 tests] and 2.07 µM [sample B, mean of 3 tests] | TGI (TK-10 renal): 243 nM, 4.96 µM, 4.64 µM, 10.7 µM [sample A] and 10.7 µM [sample B] | TGI (MCF7 breast): 225 nM, 4.77 µM, 9.85 µM, 9.39 µM | TGI (UACC-62 melanoma): 250 nM [sample A, mean of 2 tests] and 352 nM [sample A, mean of 2407 tests] and 1.61 µM [sample A, mean of 3 tests] and 546 nM [sample A, mean of 5 tests] and 491 nM [sample B, mean of 3 tests] | TGI (HCT-15 colon): 17.6 µM [sample A, mean of 2550 tests] and 21.1 µM [sample A, mean of 3 tests] and > 72.9 µM [sample A, mean of 4 tests] and 45.6 µM [sample B, mean of 3 tests] | TGI (UO-31 renal): 250 nM [sample A, mean of 2 tests] and 4.75 µM [sample A, mean of 2444 tests] and 1.7 µM, 4.65 µM [sample A, mean of 3 tests] and 8.51 µM [sample B, mean of 3 tests] | TGI (IGROV1 ovarian): 19.7 nM, 22.9 µM [sample A, mean of 2 tests] and 5.04 µM [sample A, mean of 2426 tests] and 12.8 µM [sample A, mean of 4 tests] and 10.9 µM [sample B, mean of 3 tests] | TGI (EKVX NSCLC): 250 nM, 4.19 µM, 5.29 µM, 5.95 µM [sample A] and 1.52 µM [sample B] | TGI (HCC-2998 colon): 250 nM, 1.21 µM, 1.05 µM, 2.61 µM [sample A] and 1.84 µM [sample B] | TGI (M14 melanoma): 250 nM [sample A, mean of 2 tests] and 1.21 µM [sample A, mean of 2503 tests] and 3.34 µM [sample A, mean of 3 tests] and 1.23 µM [sample A, mean of 4 tests] and 1.54 µM [sample B, mean of 3 tests] | TGI (SF-295 CNS): 250 nM [sample A, mean of 2 tests] and 1.29 µM [sample A, mean of 2474 tests] and 2.14 µM [sample A, mean of 3 tests] and 1.53 µM [sample A, mean of 4 tests] and 2.75 µM [sample B, mean of 3 tests] | TGI (SR leukemia): 250 nM, 871 nM, 25 µM, 1.63 µM | TGI (SK-OV-3 ovarian): 6.4 µM, 19.6 µM, 22 µM [sample A] and 5.24 µM [sample B] | TGI (SW-620 colon): 250 nM, 6.03 µM, 4.12 µM, 7.73 µM [sample A] and 5.72 µM [sample B] | TGI (OVCAR-3 ovarian): 4.73 µM, 2.8 µM, 8.64 µM [sample A] and 7.15 µM [sample B] | TGI (MOLT-4 leukemia): 250 nM, 428 nM [mean of 2 tests] and 773 nM [mean of 2407 tests] and 2.05 µM [mean of 4 tests] | TGI (HS 578T breast): 250 nM [sample A, 1 test] and 1.73 µM [sample A, mean of 2318 tests] and 1.26 µM [sample A, mean of 3 tests] and 5.11 µM [sample A, mean of 4 tests] and 354 nM [sample B, 1 test] | TGI (HT29 colon): 4.99 µM, 7.36 µM, 1.33 µM [sample A] and 8.73 µM [sample B] | TGI (HCT-116 colon): 250 nM, 6.88 µM, 4.94 µM, 15.1 µM [sample A] and 2.24 µM [sample B] | TGI (SNB-75 CNS): 250 nM [sample A, mean of 2 tests] and 560 nM [sample A, mean of 2307 tests] and 1.39 µM [sample A, mean of 3 tests] and 468 nM [sample A, mean of 4 tests] and 1.26 µM [sample B, mean of 3 tests] | TGI (SK-MEL-2 melanoma): 23.4 nM, 772 nM, 1.68 µM, 633 nM [sample A] and 538 nM [sample B] | TGI (A549 NSCLC): 250 nM, 2.64 µM, 295 nM [sample A] and 4.3 µM [sample B] | TGI (DU-145 prostate): 3.29 µM [sample A, mean of 1743 tests] and 250 nM, 17.6 µM [sample A, mean of 2 tests] and 2.4 µM [sample B, 1 test] | GI50 (NCI-H460 lung): 22.2 nM [sample A, mean of 2 tests] and 7.22 nM [sample A, mean of 2385 tests] and 24.2 nM [sample A, mean of 4 tests] and < 25.3 nM [sample B, mean of 2 tests] | TGI (NCI-H460 lung): 229 nM [sample A, mean of 2 tests] and 1.61 µM [sample A, mean of 2385 tests] and 1.13 µM [sample A, mean of 4 tests] and 1.38 µM [sample B, mean of 2 tests] | TGI (CAKI-1 renal): 250 nM, 4.15 µM, 25 µM, > 55.6 µM [sample A] and 2.61 µM [sample B] | TGI (ACHN renal): 1.06 µM [mean of 1637 tests] and 250 nM [mean of 2 tests] and 10.3 µM [mean of 3 tests] | TGI (HOP-92 NSCLC): 183 nM [sample A, 1 test] and 193 nM [sample A, mean of 2 tests] and 1.14 µM [sample A, mean of 2238 tests] and 3.24 µM [sample A, mean of 3 tests] and 2.25 µM [sample B, mean of 3 tests] | TGI (HL-60(TB) leukemia): 193 nM, 1.51 µM, 1.26 µM, 3.05 µM [sample A] and 2.93 µM [sample B] | TGI (KM12 colon): 250 nM, 4.35 µM, 2.06 µM, 11.6 µM [sample A] and 6.13 µM [sample B] | TGI (T-47D breast): 250 nM, 2.58 µM, 489 nM, 2.6 µM [sample A] and 656 nM [sample B] | TGI (SN12C renal): 250 nM, 3.95 µM, 20.2 µM, 5.09 µM [sample A] and 15.8 µM [sample B] | TGI (HOP-62 NSCLC): 250 nM [sample A, mean of 2 tests] and 1.28 µM [sample A, mean of 2444 tests] and 589 nM [sample A, mean of 3 tests] and 5.3 µM [sample A, mean of 4 tests] and 1.84 µM [sample B, mean of 3 tests] | TGI (U251 CNS): 250 nM, 3.7 µM, 374 nM, 3.74 µM [sample A] and 4.72 µM [sample B] | TGI (NCI-H522 lung): 90.9 nM [sample A, mean of 2 tests] and 484 nM [sample A, mean of 2310 tests] and 546 nM, 374 nM [sample A, mean of 3 tests] and 1.29 µM [sample B, mean of 3 tests]

— PubChem BioAssay (NCI)
